# Laboratory results taken from PubChem BioAssay AID488969 (Vanderbilt High Throughput Screening Facility, 2010).
# The full ranking holds about 110,000 compounds; the median of “z-score” is about -0.1, and the highest 2% start at about 2. This is one part of the list. Active and inactive are the calls of the source.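 How the source made its calls: active means z-score in the third read window above 3 or below -3; inactive means the rest.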
# Biological target: Metabotropic glutamate receptor 8 (Rattus norvegicus) (UniProt P70579)
# Sequence of UniProt P70579 (P70579 whole entry, looked up): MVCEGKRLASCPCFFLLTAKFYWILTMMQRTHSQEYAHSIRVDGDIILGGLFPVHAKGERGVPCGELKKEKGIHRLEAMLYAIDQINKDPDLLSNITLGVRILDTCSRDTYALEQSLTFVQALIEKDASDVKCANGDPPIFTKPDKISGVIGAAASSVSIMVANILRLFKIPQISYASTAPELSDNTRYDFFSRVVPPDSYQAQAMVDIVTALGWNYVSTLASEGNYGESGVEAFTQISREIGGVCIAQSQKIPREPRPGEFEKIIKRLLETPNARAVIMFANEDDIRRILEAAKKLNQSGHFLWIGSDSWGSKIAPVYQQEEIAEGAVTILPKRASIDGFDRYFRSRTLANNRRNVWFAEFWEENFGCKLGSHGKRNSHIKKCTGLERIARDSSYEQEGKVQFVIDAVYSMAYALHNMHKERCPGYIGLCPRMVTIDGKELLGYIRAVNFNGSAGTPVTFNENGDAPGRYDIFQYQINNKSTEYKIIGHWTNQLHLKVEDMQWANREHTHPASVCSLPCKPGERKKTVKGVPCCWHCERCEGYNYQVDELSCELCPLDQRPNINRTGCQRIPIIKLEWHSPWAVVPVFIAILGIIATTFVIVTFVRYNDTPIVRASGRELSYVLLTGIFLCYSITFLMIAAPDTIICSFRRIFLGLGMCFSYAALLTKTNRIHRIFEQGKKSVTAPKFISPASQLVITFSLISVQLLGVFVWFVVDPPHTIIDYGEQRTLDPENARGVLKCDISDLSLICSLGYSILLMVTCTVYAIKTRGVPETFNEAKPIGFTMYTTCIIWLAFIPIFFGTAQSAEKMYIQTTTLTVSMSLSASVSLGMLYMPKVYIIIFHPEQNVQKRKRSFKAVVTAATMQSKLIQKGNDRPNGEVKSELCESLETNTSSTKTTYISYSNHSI
# Experiment: rat mGluR8 modulators via GIRK flux, primary screen, cell-based, thallium flux, HTS (AID 488969)
# Conditions: HEK293 rat mGluR8, GIRK (G protein-gated inwardly rectifying potassium channel) thallium flux, FluoZin2; at 10 µM; stronger effect = higher value; submaximal glutamate (EC20) added with thallium
row,SMILES,z-score
1,COC(=O)[C@H](CC(C)C)NC(=O)Nc1ccc2c(c1)OCCO2,active: 3.6
2,Cc1nnc(SCC(=O)N/N=C/c2ccc(-c3ccc(C)c(Cl)c3)o2)s1,-0.286
3,N#CCC1c2ccccc2CCN1C(=O)Nc1ccc(C(F)(F)F)cc1 (centres undefined),-0.886
4,CN(c1ccc([N+](=O)[O-])cc1C(=O)Nc1ccccc1)C1CCCCC1,-0.377
5,COC(=O)c1ccc(CSc2nc3ccccc3c(=O)n2CC(C)C)o1,-0.177
6,CN(Cc1ccccc1)S(=O)(=O)c1ccc(NC(=S)NC(=O)C2CCCCC2)cc1,-0.0674
7,CC(=O)Nc1nonc1-c1nc2ccccc2n1CC1CC1,0.025
8,Cc1ccc(NC(=O)/C(C#N)=C/c2cc(C)n(-c3ccc(N4CCOCC4)c([N+](=O)[O-])c3)c2C)c(C)c1,-0.136
9,CC1=C(C(=O)Nc2ccc(C)cc2C)C(c2ccc([N+](=O)[O-])cc2)n2ncnc2N1 (centres undefined),-0.3
10,CCN1CCCC1CN=Cc1c(O)n(-c2ccccc2)c(=O)c2ccccc12 (centres undefined),0.201
11,O=C(NCc1ccncc1)C(=O)Nc1nc(C23CC4CC(CC(C4)C2)C3)cs1,0.792
12,COc1ccc(OC)c(NC(=O)c2ccccc2NS(=O)(=O)c2cccc3cccnc23)c1,0.685
13,C=CCN(C(=O)Nc1ccc(Cl)cc1)C1CC(=O)N(c2ccc(OC)cc2)C1=O (centres undefined),-0.0352
14,Cc1ccsc1/C=N/n1c(COc2ccccc2)n[nH]c1=S,0.533
15,NNC(=O)[C@H]1C[C@@H]1c1ccccc1,0.22
16,COc1cccc(N=c2oc3ccccc3cc2-c2nc3ccccc3[nH]2)c1,-0.0872
17,CCOC(=O)c1ccc(N2CN(CC)CNC2=S)cc1,-0.43
18,COc1ccc(-n2c(COc3ccc(C)cc3)nnc2SCc2ccc(C#N)cc2)cc1,0.0959
19,Brc1ccc(-c2cn3cccnc3n2)cc1,0.165
20,Cc1cc(-n2ccnc2)n2c(nc3ccccc32)c1C#N,-0.209
21,N#Cc1c(NC(=S)NC(=O)c2ccccc2)sc2c1CCN(CCc1ccccc1)C2,0.0665
22,O=C(Nc1ccn(Cc2ccccc2F)n1)c1ccc(COc2cc(Cl)ccc2Cl)o1,-0.856

row,SMILES,z-score
1,COC(CNC(=O)c1ccc2nc(-c3cccs3)c(-c3cccs3)nc2c1)OC,-0.619
2,Cc1cccc2cc(-c3ccccc3)c(-c3ccccc3)c[n+]12,-0.127
3,CN(C)S(=O)(=O)N1CCN(C(=O)c2ccccc2Cl)CC1,0.0266
4,Cc1[nH][nH]c(=O)c1C(c1cc([N+](=O)[O-])ccc1O)c1c(C)[nH][nH]c1=O,-0.177
5,CCOC(=O)c1sc2nc(C(C)C)c3c(c2c1N)CCC3,0.0566
6,CCc1ccccc1NC(=O)c1cc2ncc(Br)cn2n1,-0.0287
7,CCOC(=O)c1c(C)nc2sc(C(=O)Nc3ccccc3)c(N)c2c1-c1ccc(OC)cc1,-0.197
8,CCOC(=O)CCC(=O)NCc1ccc2[nH]c(C)cc2c1,0.305
9,O=C1CC(N2CCN(c3ccc(O)cc3)CC2)C(=O)N1Cc1cccs1 (centres undefined),-0.238
10,C=CCN1C(=O)/C(=C2\SC(N3CCOCC3)=NC2=O)c2cc(Br)ccc21,0.982
11,Cc1ccc(C(=O)NCCCN2CCOCC2)o1,-0.201
12,Cc1cccc(-c2nsc(SCC(=O)c3ccc(Cl)cc3)n2)c1,-0.116
13,Cc1c(C(N)=O)sc2ncn(CC(=O)N3CCC(C)CC3)c(=O)c12,-0.00147
14,COC(=O)CSc1nc2nc(C)c(Br)cc2[nH]1,-0.305
15,CCCCNC(=O)C(=O)NC(C)CCc1ccccc1 (centres undefined),-0.0461
16,O=C(NCCC1=CCCCC1)C1CC(=O)N(C2CCCCCC2)C1 (centres undefined),-0.362
17,COc1ccccc1NC(=S)N1CCN(Cc2ccc3c(c2)OCO3)CC1,-0.224
18,COc1ccc(S(=O)(=O)NC2(C(F)(F)F)N=C3SCCN3C2=O)cc1 (centres undefined),0.0322
19,Cc1ccc(-c2nnc(SCC(=O)Nc3sc(C)c(C)c3C#N)n2C)cc1,0.241
20,O=C(CN1CCN(c2ccc(O)cc2)CC1)Nc1ccc(SC(F)F)cc1,-0.296
21,CSc1nc2ncc3c(n2n1)CC1c2ccccc2CCN1C3=O (centres undefined),-0.305
22,O=[N+]([O-])c1cc(/C=N/N2CCN(C3c4ccccc4-c4ccccc43)CC2)ccc1Cl,0.148

row,SMILES,z-score
1,CCn1c(=O)c(C(=O)Nc2ccccc2C)c(O)c2ccccc21,-0.15
2,CN1CCc2nc(SCC(=O)Nc3ccc(Cl)cc3)c(C#N)cc2C1,0.131
3,CC(C)Oc1ccc(C(CC(=O)N(C)CCC#N)c2ccc(F)cc2)cc1 (centres undefined),-0.362
4,CCCC1C(C(=O)OCC)=C(C)NC(C)=C1C(=O)OCC,-0.94
5,O=C(c1cc2cc(Cl)cc(Cl)c2oc1=O)N1CCOCC1,-0.472
6,COc1ccc(OCC(=O)N2CCN(c3nnc(-c4ccccc4)c4ccccc34)CC2)cc1,0.267
7,O=C(Nc1nc2c(s1)CCCC2)c1ccc(S(=O)(=O)N2CCCc3ccccc32)cc1,0.0595
8,Cc1ccc(C(=O)Nc2ncc(Cc3ccc(SC(F)F)cc3)s2)cc1,-0.155
9,O=C(CCCC(=O)N(CC(=O)NC1CCCC1)Cc1ccc2c(c1)OCO2)Nc1ccccn1,1.89
10,Cc1cc(C)nc(-n2nc(C)cc2NC(=O)CN2CCc3ccccc3C2)n1,-0.502
11,COc1ccc(NC(=O)CSc2nc(N)c(-c3ccccc3)c(=O)[nH]2)cc1,-0.236
12,Cc1nnc(SCc2cccc(Oc3ccccc3)c2)n1N,0.446
13,CCCCN1C(=O)C(NC(=O)C2CC2)(C(F)(F)F)C2=C1CC(C)(C)CC2=O (centres undefined),0.836
14,CCn1c(=O)c2cc(S(=O)(=O)NCc3ccccc3)ccc2n(CC)c1=O,-0.246
15,O=C(NCCCn1ccnc1)/C(=C\c1cccs1)NC(=O)c1ccccc1,-0.191
16,O=C(CN1C(=O)CSCC1=O)Nc1ccc2c(c1)OCO2,-0.195
17,O=C(CN(c1ccc(Cl)c(C(F)(F)F)c1)S(=O)(=O)c1ccccc1)N/N=C/c1cccc2c1OCCO2,0.23
18,Cc1nnc(SCC(=O)N2CC(=O)Nc3ccccc32)n1C,0.683
19,CCOc1cccc(CN2CCN(c3cccc(C(F)(F)F)c3)CC2)c1O,0.145
20,Cc1ccc(S(=O)(=O)N(C)CC(=O)Nc2ccccc2)cc1,-0.0279
21,CCOC(=O)COc1cccc2c(=O)n(CC(=O)N3CCN(C(=O)OCC)CC3)ccc12,-0.0151
22,COc1ccccc1OCC(=O)NN1Cc2ccccc2C1=N,-0.434

row,SMILES,z-score
1,Cc1ccc(/C=N/NC(=O)c2ccccn2)o1,-0.512
2,CCc1ccc(C(=O)CSC2=C(C#N)C(c3ccco3)C(C(C)=O)=C(C)N2)cc1 (centres undefined),-0.295
3,Cc1ccc(N2C(=O)C(NC(=O)c3ccccc3F)(C(F)(F)F)C3=C2CC(C)(C)CC3=O)cc1 (centres undefined),0.22
4,COc1cc(C2=NOC(C(=O)NCc3cccs3)C2)cc(OC)c1OC (centres undefined),-0.117
5,O=C(c1ccccc1Oc1nnnn1-c1ccccc1)N1CCOCC1,-0.23
6,CCOC(=O)c1c(N2C(=O)Nc3ccccc3N2O)sc2c1CCCCC2,-0.536
7,CCC(=O)N(CC)c1nc(-c2cc(OC)ccc2OC)cs1,-0.221
8,CCCCNC(=O)NC1CCCC1,-0.132
9,O=C(O)CC(O)C(=O)O (centres undefined),0.546
10,CC(=O)c1nc(N2C(=O)CC(Cc3cc(C)cc(C)c3)C2=O)sc1C (centres undefined),2.19
11,COc1cccc(OC)c1C(=O)Nc1ccc(C)cc1C(=O)c1ccccc1,0.12
12,Cc1noc(C)c1S(=O)(=O)NCCc1ccc(S(N)(=O)=O)cc1,-0.365
13,COc1ccc(Oc2nccc(-c3ccc(Cl)cc3)n2)cc1,-0.0957
14,CC(C)N(CCc1ccncc1)C(=O)Nc1ccc(F)cc1,-0.201
15,Cc1cccc(S(=O)(=O)NC(Cc2c[nH]c3ccccc23)C(=O)O)c1 (centres undefined),2.17
16,COCCN=C1Sc2nc3c(C)cccc3cc2CN1Cc1ccco1,0.0241
17,COc1ccc(O)c(-c2cn[nH]c2-c2cccs2)c1,0.787
18,CC(C)CN(C(=O)CN1CCN(c2ccc(F)cc2)CC1)c1c(N)n(CC(C)C)c(=O)[nH]c1=O,-0.0842
19,CCC(C)C1C(C#N)=C(N)Oc2n[nH]c(C)c21 (centres undefined),-0.936
20,O=C(CCS(=O)(=O)c1ccccc1)Nc1nc2c(s1)COc1ccccc1-2,-0.504
21,Cc1cccc(C)c1NC(=O)NC1CC2CCC(C1)N2Cc1cccs1 (centres undefined),-0.35
22,CC1(c2ccc(OC(F)F)cc2)NC(=O)N(/N=C/c2c(O)ccc3ccccc23)C1=O (centres undefined),0.709

row,SMILES,z-score
1,COc1cc(NS(=O)(=O)c2ccc(N/C=C(\C=O)c3nc4ccccc4o3)cc2)nc(OC)n1,-0.664
2,CC(=O)N1CCN(C(=S)c2ccc([N+](=O)[O-])cc2)CC1,-0.16
3,CC(C)C(O)(C#CCN1CCCCC1)C(C)C,-0.19
4,CCSc1ccc(-c2nn(-c3ccccc3)cc2/C=C(/C#N)C(=O)NCCCOC)cc1,-2.09
5,CCCCCC(=O)NC(=S)Nc1ccc(N2CCOCC2)cc1,-0.42
6,Cc1nc2ccccc2n1CC(=O)N/N=C\c1ccccn1,0.341
7,CCS(=O)(=O)/N=C(\N)c1ccccc1,0.166
8,COc1ccc(/C=C(\NC(=O)c2ccccc2)C(=O)N/N=C/c2sccc2C)cc1,-0.28
9,CCOC(=O)c1c(NC(=O)CN2CCOCC2)sc2c1CC(C)(C)OC2,-0.226
10,Clc1ccc(Cl)c(OCCN2CCOCC2)c1,-0.122
11,Cn1nccc1C(=O)Nc1ccc(Cl)cc1,0.196
12,CCOC(=O)/C(C#N)=C/C1=C(N2CCCC2)CC(C)(C)OC1,2.75
13,COc1ccc(OC)c(CNC(=O)Cc2c(C(=O)O)[nH]c3ccccc23)c1,-0.828
14,Cn1nc(OC(=O)Nc2ccc(Cl)cc2)cc1C(F)(F)F,-0.309
15,CCN1CCN(CC(=O)c2c[nH]c3ccccc23)CC1,-0.051
16,CC(=O)c1c(C)nn(CCC(=O)O)c1C,-0.184
17,COC(=O)c1ccccc1NC(=O)c1ccccc1OC,0.307
18,O=C(CNc1ccc(C(F)(F)F)cc1[N+](=O)[O-])OCC(=O)c1ccccc1,-0.875
19,O=C(COc1ccc2ccccc2c1)N1CCN(C(=O)c2cccnc2)CC1,-0.0679
20,C=C(C)c1cccc(C(C)(C)NC(=O)Nc2ncccn2)c1,0.295
21,Cc1nc(SCC(=O)Nc2ccc(N3CCOCC3)cc2)nc(C)c1C,0.112
